In the antibiotic and cytotoxicity screens of Wong et al. (2023) one finds cytotoxicity call data, which are given here for 40 compounds.

SMILES strings stand for the structures. The list shows a part of the results.

The first experiment concerns HSkMC (human skeletal muscle cells). The experiment in a line: cytotoxicity call (relative viability < 0.9). The following applies: 10 µM.
Regarding `C[C@H](CO)N1C[C@H](C)[C@H](CN(C)Cc2ccc(C(=O)Nc3ccccc3N)cc2)Oc2ccc(NC(=O)Nc3cccc4ccccc34)cc2CC1=O`, the cytotoxicity call was “inactive”.

Regarding `C[C@@H]1CN([C@H](C)CO)C(=O)Cc2cc(NC(=O)C3CC3)ccc2O[C@H]1CN(C)C(=O)NC1CCCCC1`, the cytotoxicity call was “inactive”.

Take `C[C@H]1CN([C@@H](C)CO)C(=O)c2cc(NS(=O)(=O)c3ccccc3)ccc2O[C@H]1CN(C)S(=O)(=O)c1ccccc1`: the cytotoxicity call is “inactive”.

Take `COc1c(O)cc(O)cc1O`: the cytotoxicity call was “inactive”.

Take `CNC[C@H]1OCCCC[C@@H](C)Oc2ccc(NS(=O)(=O)c3c(C)noc3C)cc2C(=O)N([C@H](C)CO)C[C@H]1C`: the cytotoxicity call is “inactive”.

Turning to `C[C@@H]1CCCCO[C@H](CN(C)C(=O)NC2CCCCC2)[C@H](C)CN([C@H](C)CO)C(=O)c2cc(NS(=O)(=O)c3ccc(Cl)cc3)ccc2O1`, the cytotoxicity call was “inactive”.

In the case of `C[C@@H]1CN([C@H](C)CO)S(=O)(=O)c2ccc(C#CC3CC3)cc2O[C@@H]1CN(C)C(=O)C1CCCCC1`, the cytotoxicity call is “inactive”.

As to `Cc1ccc(S(=O)(=O)N(C)C[C@H]2Oc3ccc(NC(=O)Nc4ccc(C(F)(F)F)cc4)cc3C(=O)N([C@@H](C)CO)C[C@H]2C)cc1`, the cytotoxicity call was “inactive”.

As for `C=C(O)C(=O)O`, the cytotoxicity call was “inactive”.

Regarding `CC(C)CNC(=O)CSc1nnc[nH]1`, the cytotoxicity call is “inactive”.

With `C[C@@H]1CN([C@H](C)CO)C(=O)c2cc(NC(=O)Cc3ccccc3)ccc2O[C@@H](C)CCCCO[C@H]1CN(C)C(=O)Nc1cccc2ccccc12`, the cytotoxicity call was “inactive”.

As to `CCN([NH2+][O-])c1ccc(O)c(O)c1`, the cytotoxicity call is “inactive”.

For `Cc1onc(-c2ccccc2)c1C#N`, the cytotoxicity call was “inactive”.

For the compound `COCCC(=O)N1CC[C@]2(CCOC2)C1`, the cytotoxicity call was “inactive”.

Consider `Cc1noc(C)c1S(=O)(=O)N(C)C[C@@H]1OCc2cnnn2CCCC(=O)N([C@@H](C)CO)C[C@H]1C`, for which the cytotoxicity call is “inactive”.

In the case of `Cc1ccc(S[C@]2(C(=O)NC3CC3)CC(=O)N(C3Cc4ccccc4C3)[C@@H]2c2ccc(CO)cc2I)cc1`, the cytotoxicity call was “inactive”.

On to `C[C@H](NC(=O)C[C@@H]1C[C@H]2c3cc(NC(=O)Nc4ccc(C(F)(F)F)cc4)ccc3O[C@H]2[C@H](CO)O1)c1ccccc1`, for which the cytotoxicity call is “inactive”.

`CO[C@@H]1CN(C)C(=O)c2ccc(NC(=O)Nc3ccccc3)cc2OC[C@@H](C)N(C(=O)CN(C)C)C[C@H]1C`: the cytotoxicity call was “inactive”.

As to `C[C@@H]1O[C@@H](O[C@@H]2[C@@H](O)[C@H](O)[C@@H](CO)O[C@H]2c2c(O)cc3oc(-c4ccc(O)cc4)cc(=O)c3c2O)[C@H](O)[C@H](O)[C@H]1O`, the cytotoxicity call is “inactive”.

With `COC(=O)C[C@@H]1CC[C@@H]2[C@H](COC[C@@H](O)CN2S(=O)(=O)c2ccc(F)cc2)O1`, the cytotoxicity call was “inactive”.

For `C[C@@H]1CN([C@@H](C)CO)C(=O)c2cccc(NC(=O)CCCCCC(=O)Nc3ccccc3N)c2O[C@@H]1CN(C)C(=O)Nc1ccc(F)cc1`, the cytotoxicity call was “inactive”.

As to `CO[C@H]1CN(C)C(=O)c2cc(NC(=O)Nc3ccccc3F)ccc2OC[C@@H](C)N(Cc2ccccc2C(=O)O)C[C@@H]1C`, the cytotoxicity call is “inactive”.

Consider `COCC(=O)Nc1ccc2c(c1)C(=O)N(C)[C@@H]1CC[C@@H](CC(=O)NC3Cc4ccccc4C3)O[C@@H]1CO2`, for which the cytotoxicity call was “inactive”.

As to `C[C@H]1CN([C@@H](C)CO)C(=O)Cc2cc(NC(=O)CCN3CCOCC3)ccc2O[C@@H]1CN(C)C(=O)Nc1ccc2c(c1)OCO2`, the cytotoxicity call is “inactive”.

For `O=C(C[C@@H]1CC[C@@H]2[C@H](COC[C@@H](O)CN2C(=O)c2ccc3c(c2)OCO3)O1)NCCN1CCCC1`, the cytotoxicity call is “inactive”.

For `COC(=O)C[C@H]1CC[C@@H](N)[C@H](CO)O1`, the cytotoxicity call is “inactive”.

As to `Cc1noc(C)c1NC(=O)N(C)C[C@H]1Oc2c(NS(=O)(=O)c3c(C)noc3C)cccc2C(=O)N([C@@H](C)CO)C[C@H]1C`, the cytotoxicity call is “inactive”.

Take `CSCCNc1nc(SCCC(F)(F)F)nc2c1ncn2[C@@H]1O[C@H](COP(=O)(O)OP(=O)(O)C(Cl)(Cl)P(=O)(O)O)[C@@H](O)[C@H]1O`: the cytotoxicity call is “inactive”.

For another experiment, the system named is HepG2. The experiment in a line: cytotoxicity call (relative viability < 0.9). The following applies: 10 µM.
With `COC(=O)CCCCCCC(=O)N/N=C/[C@@H](O)[C@H](O)[C@H](O)CO`, the cytotoxicity call is “inactive”.

Consider `CN(C)CCCNC(=O)C[C@H]1CC[C@H]2[C@H](COc3ccc(NC(=O)c4ccccc4F)cc3C(=O)N2C)O1`, for which the cytotoxicity call is “inactive”.

For the compound `COc1ccccc1OC[C@@H](O)COC(N)=O`, the cytotoxicity call is “inactive”.

Regarding `COc1ccc(S(=O)(=O)N(C)C[C@H]2Oc3ccc(NC(=O)C4CC4)cc3C(=O)N([C@H](C)CO)C[C@@H]2C)cc1`, the cytotoxicity call was “inactive”.

In the case of `C[C@H]1CN([C@@H](C)CO)C(=O)c2cc(NS(=O)(=O)c3ccccc3)ccc2O[C@H]1CN(C)S(=O)(=O)c1cn(C)cn1`, the cytotoxicity call was “inactive”.

On to `C[C@@H]1CN([C@@H](C)CO)C(=O)c2cccc(NC(=O)CCCCCC(=O)Nc3ccccc3N)c2O[C@H]1CN(C)S(=O)(=O)c1cn(C)cn1`, for which the cytotoxicity call is “inactive”.

As for `CCN(Cc1cc(C(F)(F)F)ccc1-c1cc(CC(=O)O)ccc1OC)C(=O)NCc1ccccc1`, the cytotoxicity call is “inactive”.

For `C[C@H]1CN([C@@H](C)CO)C(=O)Cc2cc(NS(=O)(=O)c3cn(C)cn3)ccc2O[C@H]1CN(C)Cc1ccccc1`, the cytotoxicity call is “inactive”.

Turning to `C=CC[C@@H](CC(=O)N[C@@H](CO)Cc1ccccc1)C(=O)N[C@@H](C)COC(=O)[C@H](CC=C)CC(=O)OC(C)(C)C`, the cytotoxicity call is “inactive”.

Turning to `Cc1n[nH]c(=S)n1N`, the cytotoxicity call is “inactive”.

As for `COc1ccc(C#Cc2cnc3c(c2)C(=O)N([C@@H](C)CO)C[C@@H](C)[C@@H](CN(C)C(=O)CN(C)C)O3)cc1`, the cytotoxicity call is “inactive”.

With `C[C@@H]1CN([C@H](C)CO)C(=O)Cc2cc(NC(=O)Cn3cnnn3)ccc2O[C@@H]1CN(C)S(C)(=O)=O`, the cytotoxicity call was “inactive”.

With `C[C@H](CO)N1C[C@H](C)[C@H](CN(C)Cc2ccc(C(=O)Nc3ccccc3N)cc2)Oc2ccc(NC(=O)Nc3cccc4ccccc34)cc2CC1=O`, the cytotoxicity call was “active”.

Regarding `C[C@@H]1CN([C@H](C)CO)C(=O)Cc2cc(NC(=O)C3CC3)ccc2O[C@H]1CN(C)C(=O)NC1CCCCC1`, the cytotoxicity call is “inactive”.

For the compound `C[C@H]1CN([C@@H](C)CO)C(=O)c2cc(NS(=O)(=O)c3ccccc3)ccc2O[C@H]1CN(C)S(=O)(=O)c1ccccc1`, the cytotoxicity call was “inactive”.

Turning to `COc1c(O)cc(O)cc1O`, the cytotoxicity call is “inactive”.

As for `CNC[C@H]1OCCCC[C@@H](C)Oc2ccc(NS(=O)(=O)c3c(C)noc3C)cc2C(=O)N([C@H](C)CO)C[C@H]1C`, the cytotoxicity call was “inactive”.

As for `C[C@@H]1CCCCO[C@H](CN(C)C(=O)NC2CCCCC2)[C@H](C)CN([C@H](C)CO)C(=O)c2cc(NS(=O)(=O)c3ccc(Cl)cc3)ccc2O1`, the cytotoxicity call is “active”.

As for `C[C@@H]1CN([C@H](C)CO)S(=O)(=O)c2ccc(C#CC3CC3)cc2O[C@@H]1CN(C)C(=O)C1CCCCC1`, the cytotoxicity call was “inactive”.

With `Cc1ccc(S(=O)(=O)N(C)C[C@H]2Oc3ccc(NC(=O)Nc4ccc(C(F)(F)F)cc4)cc3C(=O)N([C@@H](C)CO)C[C@H]2C)cc1`, the cytotoxicity call was “active”.

As to `C=C(O)C(=O)O`, the cytotoxicity call was “inactive”.

With `CC(C)CNC(=O)CSc1nnc[nH]1`, the cytotoxicity call is “inactive”.

Regarding `C[C@@H]1CN([C@H](C)CO)C(=O)c2cc(NC(=O)Cc3ccccc3)ccc2O[C@@H](C)CCCCO[C@H]1CN(C)C(=O)Nc1cccc2ccccc12`, the cytotoxicity call is “inactive”.

For `CCN([NH2+][O-])c1ccc(O)c(O)c1`, the cytotoxicity call was “inactive”.

For the compound `Cc1onc(-c2ccccc2)c1C#N`, the cytotoxicity call is “inactive”.

`COCCC(=O)N1CC[C@]2(CCOC2)C1`: the cytotoxicity call was “inactive”.

As to `Cc1noc(C)c1S(=O)(=O)N(C)C[C@@H]1OCc2cnnn2CCCC(=O)N([C@@H](C)CO)C[C@H]1C`, the cytotoxicity call was “inactive”.

Regarding `Cc1ccc(S[C@]2(C(=O)NC3CC3)CC(=O)N(C3Cc4ccccc4C3)[C@@H]2c2ccc(CO)cc2I)cc1`, the cytotoxicity call was “inactive”.

With `C[C@H](NC(=O)C[C@@H]1C[C@H]2c3cc(NC(=O)Nc4ccc(C(F)(F)F)cc4)ccc3O[C@H]2[C@H](CO)O1)c1ccccc1`, the cytotoxicity call was “inactive”.

In the case of `CO[C@@H]1CN(C)C(=O)c2ccc(NC(=O)Nc3ccccc3)cc2OC[C@@H](C)N(C(=O)CN(C)C)C[C@H]1C`, the cytotoxicity call is “inactive”.

For the compound `C[C@@H]1O[C@@H](O[C@@H]2[C@@H](O)[C@H](O)[C@@H](CO)O[C@H]2c2c(O)cc3oc(-c4ccc(O)cc4)cc(=O)c3c2O)[C@H](O)[C@H](O)[C@H]1O`, the cytotoxicity call was “inactive”.

As for `COC(=O)C[C@@H]1CC[C@@H]2[C@H](COC[C@@H](O)CN2S(=O)(=O)c2ccc(F)cc2)O1`, the cytotoxicity call was “inactive”.

With `C[C@@H]1CN([C@@H](C)CO)C(=O)c2cccc(NC(=O)CCCCCC(=O)Nc3ccccc3N)c2O[C@@H]1CN(C)C(=O)Nc1ccc(F)cc1`, the cytotoxicity call was “inactive”.

Turning to `CO[C@H]1CN(C)C(=O)c2cc(NC(=O)Nc3ccccc3F)ccc2OC[C@@H](C)N(Cc2ccccc2C(=O)O)C[C@@H]1C`, the cytotoxicity call was “inactive”.

Turning to `COCC(=O)Nc1ccc2c(c1)C(=O)N(C)[C@@H]1CC[C@@H](CC(=O)NC3Cc4ccccc4C3)O[C@@H]1CO2`, the cytotoxicity call is “inactive”.

With `C[C@H]1CN([C@@H](C)CO)C(=O)Cc2cc(NC(=O)CCN3CCOCC3)ccc2O[C@@H]1CN(C)C(=O)Nc1ccc2c(c1)OCO2`, the cytotoxicity call was “inactive”.

For `O=C(C[C@@H]1CC[C@@H]2[C@H](COC[C@@H](O)CN2C(=O)c2ccc3c(c2)OCO3)O1)NCCN1CCCC1`, the cytotoxicity call is “inactive”.

For the compound `COC(=O)C[C@H]1CC[C@@H](N)[C@H](CO)O1`, the cytotoxicity call is “inactive”.

Turning to `Cc1noc(C)c1NC(=O)N(C)C[C@H]1Oc2c(NS(=O)(=O)c3c(C)noc3C)cccc2C(=O)N([C@@H](C)CO)C[C@H]1C`, the cytotoxicity call is “inactive”.

Take `CSCCNc1nc(SCCC(F)(F)F)nc2c1ncn2[C@@H]1O[C@H](COP(=O)(O)OP(=O)(O)C(Cl)(Cl)P(=O)(O)O)[C@@H](O)[C@H]1O`: the cytotoxicity call was “inactive”.
